Results published in PubChem BioAssay AID2147 (National Center for Advancing Translational Sciences (NCATS), 2009).
In all, about 230,000 compounds went through this assay and about 3,600 (1.6%) were called active. Inconclusive means that the source gave no clear call. Such entries were picked first, then a sample of the others. The call rests on the fitted dose curve; in most records, active means well fitted inhibition curve with a large enough effect (not every such curve was filed as active); inconclusive means small, poorly fitted or top-dose-only effect, or another doubt; inactive means no such curve, though single readings can be large or run the other way. Where the call is inconclusive, the potency comes from a doubtful curve fit.

biological target: Lysine-specific demethylase 4E (Homo sapiens) (UniProt B2RXH2); test: qHTS Assay for Inhibitors of Human Jumonji Domain Containing 2E (JMJD2E); settings: JMJD2E catalytic domain, FDH-coupled NADH fluorescence (FDH is formaldehyde dehydrogenase); series mostly up to 57.1 µM
Further: nearly all actives have a fitted effect of over 50% in size.
Potency means the concentration at half of the fitted maximal effect; tags describe the fitted curve by direction and shape.

Chain of UniProt B2RXH2 (B2RXH2 whole entry, looked up, the tested form may be a part): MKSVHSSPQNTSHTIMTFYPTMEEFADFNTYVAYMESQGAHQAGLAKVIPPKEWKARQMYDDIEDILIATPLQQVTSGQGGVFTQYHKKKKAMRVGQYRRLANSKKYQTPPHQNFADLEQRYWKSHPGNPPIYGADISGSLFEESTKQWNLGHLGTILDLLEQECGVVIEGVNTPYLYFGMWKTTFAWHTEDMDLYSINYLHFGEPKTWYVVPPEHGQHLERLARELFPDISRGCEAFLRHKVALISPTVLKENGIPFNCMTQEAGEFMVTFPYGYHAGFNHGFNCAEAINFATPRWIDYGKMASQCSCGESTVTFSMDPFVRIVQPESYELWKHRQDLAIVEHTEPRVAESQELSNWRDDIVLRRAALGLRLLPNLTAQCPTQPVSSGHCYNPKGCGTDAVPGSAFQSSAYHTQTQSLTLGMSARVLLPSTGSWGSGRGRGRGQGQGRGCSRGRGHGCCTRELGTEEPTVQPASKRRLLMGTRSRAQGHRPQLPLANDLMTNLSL

Row | SMILES | Potency
1 | CCC1=C2CC[C@H]3C(=O)NC(=O)[C@H]3[C@H]2[C@@]2(C)C(=NCCc3c[nH]c4ccccc34)OC(=O)N2C1=O | inactive
2 | O=C(Nc1cccnc1)c1ccccc1NS(=O)(=O)c1ccc(F)cc1 | inconclusive: 31.6 µM [inhibitor, partial curve]
3 | CCc1ccc(S(=O)(=O)Nc2cc(SCC(=O)O)c(O)c3ccccc23)cc1 | inconclusive: 6.31 µM [inhibitor, partial curve]
4 | CCN(C(=O)COC(=O)c1c2c(nc3ccccc13)/C(=C/c1ccccc1)CC(C)C2)C1CCS(=O)(=O)C1 (stereo unspecified) | inconclusive: 28.2 µM [inhibitor, partial curve]
5 | COc1cccc(C(=O)CN(C(=O)c2ccc(Cl)c(Cl)c2)N2C(=O)c3ccccc3C2=O)c1 | inactive
6 | COC(=O)c1ccc(COc2ccc3c(C)c(C)c(=O)oc3c2C)o1 | inconclusive: 1.58 µM [inhibitor, partial curve]
7 | CCCc1nc(N2CCOCC2)c(C#N)c2c1CCCC2 | inconclusive: 31.6 µM [inhibitor, partial curve]
8 | COc1cc2c(cc1OC)-c1cc(NC3CCCCC3)nc(=O)n1CC2 | inconclusive: 39.8 µM [inhibitor, single point]
9 | CC(C)CC(c1nnnn1Cc1ccccc1)N1CCN(C(=O)c2ccco2)CC1 (stereo unspecified) | inactive
10 | O=C(c1ccc(S(=O)(=O)N2CCCCCC2)cc1)N1CCN(c2ccccn2)CC1 | inactive
11 | CCOC(=O)Nc1nnc(/C=C/c2ccc(OC)cc2)s1 | inconclusive: 28.2 µM [inhibitor, partial curve]
12 | O=C(C1=C(O)C(=O)N(CCOCCO)C1c1cccs1)c1cccs1 (stereo unspecified) | inconclusive: 6.31 µM [inhibitor, single point]
13 | Cc1cc(C)c(C#N)c(SCC(=O)c2cc(C)n(CCc3ccccc3)c2C)n1 | inconclusive: 31.6 µM [inhibitor, partial curve]
14 | CCOc1ccc(/C=N/NC2=NCCCCC2)cc1 | inactive
15 | COc1ccc(-c2nc(CS(=O)CC(=O)N3CCc4ccccc4C3)c(C)o2)cc1 (stereo unspecified) | inconclusive: 39.8 µM [inhibitor, single point]
16 | CCCCCCCCCCCCCCCC(=O)NCCc1ccc(O)c(O)c1 | inactive
17 | CCn1c(NCc2cccc(OC)c2OC)nc2ccccc21 | inconclusive: 39.8 µM [inhibitor, single point]
18 | Cc1cc2cc(CN(CCN3CCOCC3)C(=O)Nc3ccccc3F)c(=O)[nH]c2cc1C | inconclusive: 31.6 µM [inhibitor, partial curve]
19 | CCOC(=O)c1c(C)nc(C(Cl)(Cl)Cl)nc1N | inconclusive: 0.891 µM [inhibitor, full curve]
20 | CCN1c2cccc3cccc(c23)S1(=O)=O | inconclusive: 31.6 µM [inhibitor, single point]
21 | Cc1cc2ccccc2c(=O)n1CC(=O)NCC(=O)N1CCN(c2ccccc2F)CC1 | inconclusive: 28.2 µM [inhibitor, partial curve]
22 | O=C(c1ccc(Cl)cc1)c1oc2ccccc2c1CS(=O)c1ccccc1 (stereo unspecified) | inconclusive: 35.5 µM [inhibitor, single point]
23 | Cc1cc(=O)n2[nH]cc(C(=O)O)c2n1 | inconclusive: 31.6 µM [inhibitor, partial curve]
24 | COc1ccc(NC(=O)c2cc(-c3ccc(C)o3)nc3ccccc23)cc1OC | inconclusive: 35.5 µM [inhibitor, partial curve]

Row | SMILES | Potency
25 | CC[N+]1(CC)CC2=Cc3ccccc3CC2C1 (stereo unspecified) | inconclusive: 20 µM [inhibitor, single point]
26 | Cc1ccc(C)n1-c1cc(S(=O)(=O)N2CCOCC2)ccc1N1CCCC1 | inconclusive: 35.5 µM [inhibitor, single point]
27 | OCCCc1nc2n(n1)C(c1cccs1)C=C(c1ccccc1)N2 (stereo unspecified) | inconclusive: 28.2 µM [inhibitor, partial curve]
28 | Cc1ccc(C(c2nnnn2Cc2cccs2)N2CCN(Cc3ccc4c(c3)OCO4)CC2)cc1 (stereo unspecified) | inactive
29 | Cc1ccc2cc3cc(C(=O)NCc4ccco4)oc3nc2c1 | inconclusive: 22.4 µM [inhibitor, partial curve]
30 | O=C(NCCSc1c[nH]c2ccccc12)c1c(F)cccc1F | inactive
31 | CCN(CC)P(=O)(Nc1ccc(SC(F)F)cc1)c1ccc(N(C)C)cc1NC(=O)c1ccco1 (stereo unspecified) | inconclusive: 35.5 µM [inhibitor, single point]
32 | Cc1cccc(-c2cc(C(=O)NCCCn3ccnc3)c3ccccc3n2)c1 | inconclusive: 22.4 µM [inhibitor, partial curve]
33 | O=C(CCC(=O)N(CC(=O)NC1CCCC1)C1CCCC1)Nc1ccccn1 | inactive
34 | COC(=O)C(CC(C)C)NC(=O)CSc1nc(-c2ccccc2)c(C#N)c(=O)[nH]1 (stereo unspecified) | inactive
35 | CN1CCN(C(=S)Nc2cc([N+](=O)[O-])ccc2Cl)CC1 | inactive
36 | CCOc1ccc(C(=O)Nc2ccc(NC(=O)c3ccco3)c(Cl)c2)cc1Br | inconclusive: 20 µM [inhibitor, partial curve]
37 | COc1ccc2cc(C(=O)C3CCCN(C(=O)CCc4ccccn4)C3)ccc2c1 (stereo unspecified) | inconclusive: 31.6 µM [inhibitor, partial curve]
38 | CCOC(=O)Nc1ccc2c(c1)Nc1ccccc1S2 | inactive
39 | COC(=O)C1=C(C)Nc2c(c(=O)n(C)c(=O)n2C)C1c1ccc(C)cc1 (stereo unspecified) | inconclusive: 31.6 µM [inhibitor, single point]
40 | CC1(C)CC(=O)C(C(C2=C(O)CC(C)(C)CC2=O)c2ccc(Br)s2)C(=O)C1 (stereo unspecified) | active: 20 µM
41 | Cc1cc(O)c(C=O)c2c1C(=O)Oc1c(COC(=O)/C=C/C(=O)O)c(O)c(C(=O)O)c(C)c1O2 | inconclusive: 28.2 µM [inhibitor, single point]
42 | Cc1ccsc1C(=O)C1CCCN(Cc2cc(F)ccc2-n2cccn2)C1 (stereo unspecified) | inactive
43 | COc1ccc(OCc2nnc(SCC(=O)c3ccccc3)o2)cc1 | inactive
44 | CCOC(=O)C1CCCN(c2cc(C)nc3cc(-c4ccc(F)cc4)nn23)C1 (stereo unspecified) | inactive
45 | O=C(CN1C(=O)c2cccnc2C1=O)c1ccccc1 | inconclusive: 7.08 µM [inhibitor, single point]
46 | Cc1ccc(C)c(NC(=O)CSc2nnc(CCCCCNC(=O)OC(C)(C)C)o2)c1 | inactive
47 | O=C(C1=C(O)C(=O)N(CCN2CCOCC2)C1c1cccnc1)c1cc2ccccc2o1 (stereo unspecified) | inconclusive: 39.8 µM [inhibitor, single point]
48 | CC(=O)C1=C(C)N(c2ccccc2)C(=O)C1(NS(=O)(=O)c1ccc(N)cc1)C(F)(F)F (stereo unspecified) | inactive

Row | SMILES | Potency
49 | NC(=O)COC(=O)CNC(=O)c1cc(Cl)cc([N+](=O)[O-])c1 | inactive
50 | CCCN(Cc1cc2cc(C)ccc2[nH]c1=O)C(=O)c1ccccn1 | inconclusive: 28.2 µM [inhibitor, single point]
51 | CCN1CC=C2C(C#N)=C(N)C(C#N)(C#N)[C@H](c3ccoc3)[C@H]2C1 | inconclusive: 28.2 µM [inhibitor, partial curve]
52 | CC1CCC(NC(=O)C2CCC(CNS(=O)(=O)c3cccc4nsnc34)CC2)CC1 (stereo unspecified) | inactive
53 | COc1ccc(OC)c(NC(=O)c2ccccc2N(Cc2ccccc2)S(C)(=O)=O)c1 | inactive
54 | COC(=O)[C@@]1(Cc2ccc(F)cc2)[C@H]2c3cc(C(=O)N(C)C)n(Cc4ccc(C)c(F)c4F)c3C[C@H]2CN1C(=O)c1ccccc1 | inactive
55 | NNC(=O)c1oc2ccccc2c1-n1cccc1 | inconclusive: 39.8 µM [inhibitor, single point]
56 | Cc1cc(/C=C2\C(=N)N3N=CSC3=NC2=O)c(C)n1Cc1ccccc1 | inconclusive: 39.8 µM [inhibitor, single point]
57 | CCOC(=O)c1cnc2c(C#N)cnn2c1N | inconclusive: 12.6 µM [inhibitor, partial curve]
58 | CN(C)S(=O)(=O)c1ccc(C(=O)Nc2nnc(-c3ccco3)o2)cc1 | inconclusive: 39.8 µM [inhibitor, single point]
59 | Cc1cc(C)nc(SCc2ccc(C(=O)N/N=C/c3cccnc3)cc2)n1 | inactive
60 | NS(=O)(=O)c1ccc(NC(=O)/C=C/c2ccc3c(c2)OCO3)cc1 | inconclusive: 31.6 µM [inhibitor, single point]
61 | Cc1nc2ccc(NC(=S)N3CCCC3)cc2nc1C | inconclusive: 31.6 µM [inhibitor, partial curve]
62 | Cc1ccc(/C=N/Nc2ncc(Cl)cc2Cl)s1 | inconclusive: 39.8 µM [inhibitor, single point]
63 | N#CC(C#N)=Cc1cccn1-c1ccc(S(N)(=O)=O)cc1 | inactive
64 | COc1ccc(CC(=O)Nc2nc3ccc(F)cc3s2)cc1S(=O)(=O)N1CCOCC1 | inactive
65 | COC(=O)c1cnn(-c2ccccc2)c1/C=N/NC(=S)Nc1ccc(Cl)cc1 | inactive
66 | CCOC(=O)N1CCC(NCCNC(=O)c2cccs2)CC1 | inconclusive: 31.6 µM [inhibitor, single point]
67 | COc1ccc(C(=O)N2CCCC(c3nc(-c4ccc(OC)c(OC)c4)no3)C2)c(OC)c1 (stereo unspecified) | inactive
68 | COCCN(Cc1cc2cc3c(cc2nc1Cl)OCO3)C(=O)c1cccc(C)c1 | inconclusive: 22.4 µM [inhibitor, single point]
69 | COc1ccccc1C1=NOC(COC(=O)c2ccc([N+](=O)[O-])cc2)C1 (stereo unspecified) | inactive
70 | Cc1cc(C)n2c(SCC(=O)NC3CCCC(C)C3C)nnc2n1 (stereo unspecified) | inconclusive: 35.5 µM [inhibitor, single point]
71 | COc1ccccc1N1CCN(CC(=O)c2ccc3ccn(C(C)=O)c3c2)CC1 | inconclusive: 22.4 µM [inhibitor, partial curve]
